Test results from the supplement of paper PMC4604168 (melanoma cell lines).
The list shows a part of the results. Most values come without repeats; read them as rough.

Each compound was assayed on IPC-298 (assay: cell count relative to DMSO control; melanoma cells; higher = more viable cells). Details: library dose: low library concentration; 72 h.
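Also: cell number obtained by counting DAPI-stained nuclei in high-throughput microscope images with image analysis software, screen run in 1,536-well plates.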

Row | SMILES | cell count
1 | Cn1cc(C2=C(c3cn(C4CCN(Cc5ccccn5)CC4)c4ccccc34)C(=O)NC2=O)c2ccccc21 [Enzastaurin] + C[C@]12O[C@H](C[C@]1(O)CO)n1c3ccccc3c3c4c(c5c6ccccc6n2c5c31)CNC4=O [Lestaurtinib] (first compound 0.8 µM, partner dose 0.004 µM) | 99.8%
2 | C[C@]12O[C@H](C[C@]1(O)CO)n1c3ccccc3c3c4c(c5c6ccccc6n2c5c31)CNC4=O [Lestaurtinib] + CS(=O)(=O)CCNCc1ccc(-c2ccc3ncnc(Nc4ccc(OCc5cccc(F)c5)c(Cl)c4)c3c2)o1 [lapatinib] (first compound 0.004 µM, partner dose 0.8 µM) | 84.6%
3 | C[C@]12O[C@H](C[C@]1(O)CO)n1c3ccccc3c3c4c(c5c6ccccc6n2c5c31)CNC4=O [Lestaurtinib] + Clc1ccc(Nc2nnc(Cc3ccncc3)c3ccccc23)cc1 [vatalanib] (first compound 0.004 µM, partner dose 2 µM) | 104%
4 | C[C@]12O[C@H](C[C@]1(O)CO)n1c3ccccc3c3c4c(c5c6ccccc6n2c5c31)CNC4=O [Lestaurtinib] + Cc1cc(Nc2cc(N3CCN(C)CC3)nc(/C=C/c3ccccc3)n2)n[nH]1 [ENMD2076] (first compound 0.004 µM, partner dose 0.04 µM) | 92.6%
5 | C[C@]12O[C@H](C[C@]1(O)CO)n1c3ccccc3c3c4c(c5c6ccccc6n2c5c31)CNC4=O [Lestaurtinib] + C#Cc1cccc(Nc2ncnc3cc(OCCOC)c(OCCOC)cc23)c1 [erlotinib] (first compound 0.004 µM, partner dose 0.8 µM) | 78.5%
